Laboratory results from PubChem BioAssay AID1508642 (National Center for Advancing Translational Sciences (NCATS), 2021).
The campaign covered roughly 43,000 compounds. About 200 (0.47%) were called active. Another 12% or so got no clear call; they are omitted. Calls follow the shape of the dose curve; as a rule, active = well fitted cell-killing curve with a large enough effect; inconclusive = small, poorly fitted or top-dose-only effect, or effect the other way; inactive = flat fitted curve, though single readings scatter. The list shows a part of the results.

Assay: Cell viability qHTS assay in S16 Pmp22-F2sN cells; also: nearly all actives have a fitted effect of over 65% in size
Conditions: S16 Pmp22-F2sN Schwann cells (luciferase reporters placed in the Pmp22 gene) viability, CellTiter-Glo, 24 h; series mostly up to 57.5 µM; activity change, negative = cytotoxicity: at the top concentration
In short: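 Luminescence from CellTiter-Glo, read by CCD camera after a 15 min room-temperature incubation, served as the viability signal. Reporter Schwann cells (S16 Pmp22-F2sN) had been treated with pin-transferred compounds for 24 h at 37C.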
% is scaled to controls: 0 for no effect and ±100 for the full control effect.

Row | Structure (SMILES) | activity change, negative = cytotoxicity
1 | CCOc1ccc(CNC(=O)c2ccc3c(c2)nc2n3CCOC2)cc1 | inactive: 7.14%
2 | CC(=O)N1CCOc2cc(S(=O)(=O)NCc3ccc(C)cc3)c(C)cc21 | inactive: 5.5%
3 | Cc1c(CNCc2ccc(OC(C)C)cc2)c(C(=O)O)c(C)n1Cc1ccc(Cl)cc1 | inactive: 4.98%
4 | COc1ccc(N(C(=O)c2ccccc2F)S(=O)(=O)c2ccc3c(c2)n(C)c(=O)n3C)cc1 | inactive: -3.42%
5 | COc1ccc(-c2cc(C(F)(F)F)nc(SCC(=O)N(C)Cc3ccccc3)n2)cc1OC | inactive: -30%
6 | O=C(c1cc2ccc3cccnc3c2[nH]1)N1CCN(c2cccc(C(F)(F)F)c2)CC1 | inactive: -3.18%
7 | COc1ccc2c(c1)c1c(c(=O)n(CCc3ccccc3)c(=O)n1Cc1ccccc1)n2C | inactive: -1.36%
8 | Cc1ccc(C)c2sc(NC(=O)c3ccc(S(=O)(=O)N4CCCC4)cc3)nc12 | inactive: 0.511%
9 | CCOC(=O)CSc1nc2sc3c(c2c(=O)n1Cc1ccccc1)CCC(C(C)(C)C)C3 (stereo unspecified) | inactive: 6.95%
10 | COc1ccc(CNC(=O)c2c(Nc3ccc(OC)cc3OC)sc(C(=O)c3ccc(Cl)cc3)c2N)cc1 | inactive: -5.07%
11 | CCN1c2ccccc2-c2nc(SCC(=O)Nc3cccc(C(F)(F)F)c3)ncc2S1(=O)=O | inactive: 2.81%
12 | CCC(C)(C)NS(=O)(=O)c1cc(-c2cc(C)no2)ccc1C | inactive: -11.8%
13 | COc1cc(O)ccc1C1CC(=O)Nc2c1c(=O)nc(SCc1ccccc1C)n2C (stereo unspecified) | inactive: -1.63%
14 | Cc1ccc(C)c(CN2C(=O)c3ccccc3S(=O)c3ccc(C(=O)N4CCC(C)CC4)cc32)c1 (stereo unspecified) | inactive: 11.5%
15 | COc1ccc(CNc2oc(-c3ccc(COc4ccc(Cl)cc4)o3)nc2C#N)cc1 | inactive: 3.57%
16 | CCOC(=O)c1cccc(NC(=O)c2cc(S(=O)(=O)N3CCCCCC3)cn2C)c1 | inactive: -7.86%
17 | COc1cccc(CNC(=O)CNS(=O)(=O)c2ccc3nc(C)sc3c2)c1 | inactive: 1.84%
18 | COc1cc(NC(=O)CSc2nc3ccccc3nc2Cc2ccccc2OC)cc(OC)c1 | inactive: -8.97%
19 | Cc1nn2c(C)c(C(=O)N3CCN(c4ccccc4)CC3)cnc2c1-c1ccccc1 | inactive: -0.213%
20 | Cc1ccc(CCNC(=O)c2cc3c(=O)oc4ccccc4c3s2)cc1 | inactive: -5.55%
21 | COc1ccccc1OCCn1c(COc2cc(C)ccc2C)nc2ccccc21 | inactive: 12.7%

Row | Structure (SMILES) | activity change, negative = cytotoxicity
22 | CCN(CC)S(=O)(=O)c1nnc(NC(=O)c2ccccc2Cl)s1 | inactive: -8.57%
23 | CC(C)CNc1nc(NC(C)(C)C)nc(Oc2ccc(=O)n(-c3ccccc3)n2)n1 | inactive: -6.42%
24 | COc1cc(OC)cc(C(=O)Nc2ccc3oc(-c4ccccc4C)nc3c2)c1 | inactive: 1.77%
25 | CCC(=O)Nc1ccc(C)cc1-c1nc2ccccc2n(CC(=O)Nc2ccccc2Cl)c1=O | inactive: 3.79%
26 | COc1ccc(NC(=O)Cn2c(=O)n(CC3CCCO3)c(=O)c3ccccc32)c(OC)c1 (stereo unspecified) | inactive: 8.4%
27 | COc1cc(C2c3c(oc4ccc(F)cc4c3=O)C(=O)N2c2nc(C)c(C)s2)cc(OC)c1OC (stereo unspecified) | inactive: -9.85%
28 | COc1ccc(C)cc1NC(=O)COCc1cc(-c2cccs2)on1 | inactive: -3.12%
29 | CCOc1ccc(NC(=O)CSc2nc3c(c(=O)[nH]2)CCCC3)cc1 | inactive: -7.05%
30 | COc1ccc(CCNC(=O)CCCn2c(=O)c3ccccc3n(Cc3ccc(C)cc3)c2=O)cc1OC | inactive: 15.9%
31 | Cc1ccc2ncc(C(=O)NCCc3ccc(S(N)(=O)=O)cc3)c(=O)n2c1 | inactive: -1.33%
32 | COc1ccc2nc(N(Cc3cccnc3)C(=O)C3COc4ccccc4O3)sc2c1 (stereo unspecified) | inactive: 3.97%
33 | CCCN(C(=O)c1cn(C)c(=O)c2ccccc12)c1ccccc1C | inactive: 1.94%
34 | CCOc1ccccc1C(=O)N(Cc1cc(OC)c(OC)c(OC)c1)C1CCS(=O)(=O)C1 (stereo unspecified) | inactive: 1.92%
35 | O=C(CN1CCSc2ccccc21)NCc1ccccc1F | inactive: 4.85%
36 | Cc1nc(CC(=O)Nc2cc(Cl)ccc2C)cs1 | inactive: 5.43%
37 | COc1cc(C)ccc1OCCSc1nc(-c2cccc(C)c2)nc2cc(=O)[nH]n12 | inactive: -23.5%
38 | COc1ccc(N2CCN(S(=O)(=O)CCNC(=O)C3CC(=O)N(c4ccccc4)C3)CC2)cc1 (stereo unspecified) | inactive: 3.31%
39 | CCCOc1ccc(CN(C(=O)c2cc(=O)c3ccc(C)cc3o2)C2CCS(=O)(=O)C2)cc1 (stereo unspecified) | inactive: -10.5%
40 | COc1ccc(CCNC(=O)c2cc(C)nc3c2c(C)nn3-c2ccc(C)cc2)cc1OC | inactive: 4.47%
41 | CCN(CC)CCCNC(=O)c1ccc2nc(N3CCCCC3)sc2c1 | inactive: 3.18%
42 | CCNC(=O)c1ccc2nc(CCc3ccccc3)oc2c1 | inactive: 12.1%

Row | Structure (SMILES) | activity change, negative = cytotoxicity
43 | Cc1ccccc1NS(=O)(=O)c1ccc2[nH]cc(C(=O)NC(C)c3ccccc3)c(=O)c2c1 (stereo unspecified) | inactive: -1.75%
44 | COc1ccccc1C(=O)Nc1nc2nc(-c3ccccc3)cc(=O)n2[nH]1 | inactive: -1.28%
45 | CCc1nn2c(=O)cc(COC(=O)c3ccc(NC(=O)c4cccs4)cc3)nc2s1 | inactive: 4.03%
46 | Cc1ccc(C)c(CNC(=O)C2CCN(c3nc4ccccc4nc3C(F)(F)F)CC2)c1 | inactive: 28.6%
47 | CCOc1ccccc1CNC(=O)Cn1ncn2nc(-c3cccs3)cc2c1=O | inactive: -0.145%
48 | COc1ccc(Nc2nnc(-c3cc4c(ccc5ccccc54)oc3=O)s2)cc1 | inactive: 12.3%
49 | COc1ccccc1CCNC(=O)C(=O)NCC(c1cccs1)S(=O)(=O)c1ccc(C)cc1 (stereo unspecified) | inactive: -2.9%
50 | CC(=O)N1CCCC1c1nc2ccccc2n1Cc1cccc(Cl)c1 (stereo unspecified) | inactive: 3.37%
51 | CCc1ccc(CNC(=O)COc2cc(=O)n(CC)c3ccccc23)cc1 | inactive: -15.3%
52 | COC(=O)c1c(NC(=O)c2nc(SCc3cccc(C)c3)ncc2Cl)sc2c1CCCC2 | inactive: -2.14%
53 | COc1ccc(-n2nnc(-c3nc(-c4cccs4)no3)c2N)cc1OC | inactive: 3%
54 | CC1=C(c2ccc(F)cc2)S(=O)(=O)NC1=NCc1ccccc1F | inactive: -4.55%
55 | COc1ccc(-c2nc(C)c(CCNC(=O)C(=O)Nc3ccccc3C#N)s2)cc1OC | inactive: 26.9%
56 | Cc1ccc(-c2noc(-c3ccc(NCc4ccco4)c([N+](=O)[O-])c3)n2)cc1 | inactive: 14.5%
57 | COc1cc(NC(=O)CC(c2ccc(C)cc2)N2Cc3ccccc3C2=O)cc(OC)c1 (stereo unspecified) | inactive: 1.23%
58 | COc1ccc(NS(=O)(=O)c2cc3c(cc2C)NC(=O)CO3)c(OC)c1 | inactive: 3.98%
59 | O=C(CSC1=Nc2ccccc2C2=NC(Cc3ccccc3)C(=O)N12)Nc1ccccc1C(F)(F)F (stereo unspecified) | inactive: -1.61%
60 | COc1cc(NC(=O)C2CCN(S(=O)(=O)c3ccc4c(c3)oc(=O)n4C)CC2)cc(OC)c1 | inactive: 3.67%
61 | Cc1noc(-c2ccc(N3CCC(C)CC3)c([N+](=O)[O-])c2)n1 | inactive: -4.82%
